# Reference: the supplement of paper PMC8728848
# Some of the results follow.
# B1: SRA-1 (Homo sapiens), P21757 (protein)
# chain: MEQWDHFHNQQEDTDSCSESVKFDARSMTALLPPNPKNSPSLQEKLKSFKAALIALYLLVFAVLIPLIGIVAAQLLKWETKNCSVSSTNANDITQSLTGKGNDSEEEMRFQEVFMEHMSNMEKRIQHILDMEANLMDTEHFQNFSMTTDQRFNDILLQLSTLFSSVQGHGNAIDEISKSLISLNTTLLDLQLNIENLNGKIQENTFKQQEEISKLEERVYNVSAEIMAMKEEQVHLEQEIKGEVKVLNNITNDLRLKDWEHSQTLRNITLIQGPPGPPGEKGDRGPTGESGPRGFPGPIGPPGLKGDRGAIGFPGSRGLPGYAGRPGNSGPKGQKGEKGSGNTLTPFTKVRLVGGSGPHEGRVEILHSGQWGTICDDRWEVRVGQVVCRSLGYPGVQAVHKAAHFGQGTGPIWLNEVFCFGRESSIEECKIRQWGTRACSHSEDAGVTCTL
# What was measured:
# Experiment in all cases: glycan array binding signal (z-score within array); higher = stronger binding
# Details in all cases: glycan notation: IUPAC condensed, linker removed
# [1] = molecular target: Fuc(a1-2)Gal(b1-4)GlcNAc(b1-3)Gal(b1-4)GlcNAc(b1-2)Man(a1-3)[Fuc(a1-2)Gal(b1-4)GlcNAc(b1-3)Gal(b1-4)GlcNAc(b1-2)Man(a1-6)]Man(b1-4)GlcNAc(b1-4)GlcNAc
# Outline: (§1)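 Glycan array data came from 3228 arrays in the Consortium for Functional Glycomics database, and only arrays with an available protein sequence were kept. Glycan names were put into IUPAC-condensed notation, and columns mapping to the same glycan were averaged. The binding signal is a within-array Z-score, averaged across arrays of one protein sequence run at different concentrations or buffers and across linkers. A negative Z-score can be read as non-binding.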
# [2] = molecular target: Fuc(a1-2)Gal(b1-4)GlcNAc(b1-3)Gal(b1-4)GlcNAc(b1-3)Gal(b1-4)GlcNAc
# Outline: as §1
# [3] = molecular target: Fuc(a1-2)Gal(b1-4)GlcNAc(b1-3)GalNAc
# Outline: as §1
# [4] = molecular target: Fuc(a1-2)Gal(b1-4)GlcNAc(b1-3)[Fuc(a1-2)Gal(b1-4)GlcNAc(b1-6)]GalNAc
# Outline: as §1
# [5] = molecular target: Fuc(a1-2)Gal(b1-4)GlcNAc(b1-3)[Fuc(a1-3)[Gal(b1-4)]GlcNAc(b1-6)]Gal(b1-4)Glc
# Outline: as §1
# [6] = molecular target: Fuc(a1-2)Gal(b1-4)GlcNAc(b1-6)GalNAc
# Outline: as §1
# [7] = molecular target: Fuc(a1-2)Gal(b1-4)GlcNAc6S
# Outline: as §1
# [8] = molecular target: Fuc(a1-2)Gal(b1-4)[Fuc(a1-3)]GlcNAc
# Outline: as §1
# [9] = molecular target: Fuc(a1-2)Gal(b1-4)[Fuc(a1-3)]GlcNAc(b1-2)Man(a1-3)[Fuc(a1-2)Gal(b1-4)[Fuc(a1-3)]GlcNAc(b1-2)Man(a1-6)]Man(b1-4)GlcNAc(b1-4)[Fuc(a1-6)]GlcNAc
# Outline: as §1
# [10] = molecular target: Fuc(a1-2)Gal(b1-4)[Fuc(a1-3)]GlcNAc(b1-2)[Fuc(a1-2)Gal(b1-4)[Fuc(a1-3)]GlcNAc(b1-4)]Man(a1-3)[Fuc(a1-2)Gal(b1-4)[Fuc(a1-3)]GlcNAc(b1-2)Man(a1-6)]Man(b1-4)GlcNAc(b1-4)GlcNAc
# Outline: as §1
# [11] = molecular target: Fuc(a1-2)Gal(b1-4)[Fuc(a1-3)]GlcNAc(b1-3)Gal(b1-4)[Fuc(a1-3)]GlcNAc
# Outline: as §1
# [12] = molecular target: Fuc(a1-2)Gal(b1-4)[Fuc(a1-3)]GlcNAc(b1-3)Gal(b1-4)[Fuc(a1-3)]GlcNAc(b1-3)Gal(b1-4)[Fuc(a1-3)]GlcNAc
# Outline: as §1
# [13] = molecular target: Fuc(a1-2)Gal(b1-4)[Fuc(a1-3)]GlcNAc(b1-3)GalNAc
# Outline: as §1
# [14] = molecular target: Fuc(a1-2)Gal(b1-4)[Fuc(a1-3)]GlcNAc(b1-3)[Neu5Ac(a2-6)Gal(b1-4)GlcNAc(b1-6)]Gal(b1-4)Glc
# Outline: as §1
# [15] = molecular target: Fuc(a1-2)Gal3S(b1-4)GlcNAc
# Outline: as §1
# [16] = molecular target: Fuc(a1-2)Gal6S(b1-3)GlcNAc
# Outline: as §1
# [17] = molecular target: Fuc(a1-2)Gal6S(b1-3)GlcNAc6S
# Outline: as §1
# Fuc(a1-2)Gal6S(b1-4)Glc = molecular target: Fuc(a1-2)Gal6S(b1-4)Glc
# Outline: as §1
# [18] = molecular target: Fuc(a1-2)Gal6S(b1-4)Glc6S
# Outline: as §1
# Fuc(a1-2)[Gal(a1-3)]Gal = molecular target: Fuc(a1-2)[Gal(a1-3)]Gal
# Outline: as §1
# [19] = molecular target: Fuc(a1-2)[Gal(a1-3)]Gal(b1-3)GalNAc
# Outline: as §1
# [20] = molecular target: Fuc(a1-2)[Gal(a1-3)]Gal(b1-3)GalNAc(b1-3)Gal(a1-4)Gal(b1-4)Glc
# Outline: as §1
# [21] = molecular target: Fuc(a1-2)[Gal(a1-3)]Gal(b1-3)GlcNAc
# Outline: as §1
# [22] = molecular target: Fuc(a1-2)[Gal(a1-3)]Gal(b1-3)GlcNAc(b1-2)Man(a1-3)[Fuc(a1-2)[Gal(a1-3)]Gal(b1-3)GlcNAc(b1-2)Man(a1-6)]Man(b1-4)GlcNAc(b1-4)GlcNAc
# Outline: as §1
# [23] = molecular target: Fuc(a1-2)[Gal(a1-3)]Gal(b1-3)GlcNAc(b1-2)Man(a1-3)[Fuc(a1-2)[Gal(a1-3)]Gal(b1-3)GlcNAc(b1-2)Man(a1-6)]Man(b1-4)GlcNAc(b1-4)[Fuc(a1-6)]GlcNAc
# Outline: as §1
# [24] = molecular target: Fuc(a1-2)[Gal(a1-3)]Gal(b1-3)GlcNAc(b1-3)GalNAc
# Outline: as §1
# [25] = molecular target: Fuc(a1-2)[Gal(a1-3)]Gal(b1-3)GlcNAc(b1-6)GalNAc
# Outline: as §1
# [26] = molecular target: Fuc(a1-2)[Gal(a1-3)]Gal(b1-4)Glc
# Outline: as §1
# [27] = molecular target: Fuc(a1-2)[Gal(a1-3)]Gal(b1-4)GlcNAc
# Outline: as §1
# [28] = molecular target: Fuc(a1-2)[Gal(a1-3)]Gal(b1-4)GlcNAc(b1-2)Man
# Outline: as §1
# [29] = molecular target: Fuc(a1-2)[Gal(a1-3)]Gal(b1-4)GlcNAc(b1-2)Man(a1-3)[Fuc(a1-2)[Gal(a1-3)]Gal(b1-4)GlcNAc(b1-2)Man(a1-6)]Man(b1-4)GlcNAc(b1-4)GlcNAc
# Outline: as §1
# [30] = molecular target: Fuc(a1-2)[Gal(a1-3)]Gal(b1-4)GlcNAc(b1-2)Man(a1-3)[Fuc(a1-2)[Gal(a1-3)]Gal(b1-4)GlcNAc(b1-2)Man(a1-6)]Man(b1-4)GlcNAc(b1-4)[Fuc(a1-6)]GlcNAc
# Outline: as §1
# [31] = molecular target: Fuc(a1-2)[Gal(a1-3)]Gal(b1-4)GlcNAc(b1-3)GalNAc
# Outline: as §1
# [32] = molecular target: Fuc(a1-2)[Gal(a1-3)]Gal(b1-4)GlcNAc(b1-3)[Fuc(a1-2)[Gal(a1-3)]Gal(b1-4)GlcNAc(b1-6)]GalNAc
# Outline: as §1
# [33] = molecular target: Fuc(a1-2)[Gal(a1-3)]Gal(b1-4)GlcNAc(b1-6)GalNAc
# Outline: as §1
# [34] = molecular target: Fuc(a1-2)[Gal(a1-3)]Gal(b1-4)[Fuc(a1-3)]Glc
# Outline: as §1
# [35] = molecular target: Fuc(a1-2)[Gal(a1-3)]Gal(b1-4)[Fuc(a1-3)]GlcNAc
# Outline: as §1
binder,measurement,setting,value
B1,glycan array binding signal (z-score),[1],0.064
same,glycan array binding signal (z-score),[2],0.202
same,glycan array binding signal (z-score),[3],-0.296
same,glycan array binding signal (z-score),[4],1.17
same,glycan array binding signal (z-score),[5],-0.419
same,glycan array binding signal (z-score),[6],0.726
same,glycan array binding signal (z-score),[7],-0.501
same,glycan array binding signal (z-score),[8],-0.093
same,glycan array binding signal (z-score),[9],-0.18
same,glycan array binding signal (z-score),[10],0.326
same,glycan array binding signal (z-score),[11],-0.376
same,glycan array binding signal (z-score),[12],0.398
same,glycan array binding signal (z-score),[13],-0.09
same,glycan array binding signal (z-score),[14],0.274
same,glycan array binding signal (z-score),[15],-0.394
same,glycan array binding signal (z-score),[16],-0.029
same,glycan array binding signal (z-score),[17],-0.128
same,glycan array binding signal (z-score),Fuc(a1-2)Gal6S(b1-4)Glc,-0.299
same,glycan array binding signal (z-score),[18],-0.013
same,glycan array binding signal (z-score),Fuc(a1-2)[Gal(a1-3)]Gal,0.705
same,glycan array binding signal (z-score),[19],0.335
same,glycan array binding signal (z-score),[20],-0.145
same,glycan array binding signal (z-score),[21],-0.247
same,glycan array binding signal (z-score),[22],-0.063
same,glycan array binding signal (z-score),[23],-0.435
same,glycan array binding signal (z-score),[24],-0.365
same,glycan array binding signal (z-score),[25],0.193
same,glycan array binding signal (z-score),[26],-0.418
same,glycan array binding signal (z-score),[27],0.489
same,glycan array binding signal (z-score),[28],-0.764
same,glycan array binding signal (z-score),[29],-0.296
same,glycan array binding signal (z-score),[30],-0.54
same,glycan array binding signal (z-score),[31],-0.281
same,glycan array binding signal (z-score),[32],0.157
same,glycan array binding signal (z-score),[33],-0.283
same,glycan array binding signal (z-score),[34],-0.504
same,glycan array binding signal (z-score),[35],0.193
